# Data published in the supplement of paper PMC10670038.
# Structures can show the parent of a compound that is named as a salt. ± gives the standard deviation of the averaged measurements. Over roughly 2,000 compounds, “relative cell viability vs DMSO, compound alone” has its median near 1.1; the lowest 2% begin near 0.29. The list shows a part of the results.
# System: TE10
# Test: relative cell viability vs DMSO, compound alone (fraction); TE10 is an esophageal squamous carcinoma line; higher = less cytotoxic
# Conditions: 2 µM; 48 h
# Procedure: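 TE10 ESCC cells (1,000/well, 384-well plates) were treated with Selleck bioactive library compounds at 2 uM alone for 48 h. Viability was read by CellTiter-Glo and expressed relative to DMSO wells. Two technical replicates (A, B).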
row,SMILES,relative cell viability
1,CCCCCCCCCCCCCCCCn1cc[n+](Cc2ccccc2)c1C,0.618 ± 0.011
2,Cn1cnc2c(F)c(Nc3ccc(Br)cc3F)c(C(=O)NOCCO)cc21,0.842 ± 0.01
3,C#Cc1cccc(Nc2ncnc3cc(OCCOC)c(OCCO)cc23)c1,1.12 ± 0.028
4,COc1cc2nc(N3CCCC3)nc(NCCCCCN3CCCC3)c2cc1OC,1.036 ± 0.0072
5,NC(=O)c1cnccn1 [Pyrazinamide],1.12 ± 0.02
6,Nc1nc(N)c(N=O)c(OCC2CCCCC2)n1,1.03 ± 0.023
7,Oc1ccc(-c2nc(-c3ccc(F)cc3)c(-c3ccncc3)[nH]2)cc1,1.31 ± 0.042
8,Cc1ccc(C(=O)Nc2ccc(CN3CCN(C)CC3)c(C(F)(F)F)c2)cc1C#Cc1cnc2[nH]ncc2c1,0.6 ± 0.011
9,Cc1ccc(-n2nc(C(C)(C)C)cc2NC(=O)NCc2cc(F)ccc2Oc2ccc3c(cnn3CCO)c2)cc1 [Pexmetinib (ARRY-614)],1.095 ± 0.0039
10,C=C[C@H]1CN2CC[C@H]1C[C@H]2[C@H](O)c1ccnc2ccc(OC)cc12 [Quinine HCl Dihydrate],0.965 ± 0.032
11,CC1(C)S[C@@H]2[C@H](NC(=O)[C@H](N)c3ccccc3)C(=O)N2[C@H]1C(=O)O [Ampicillin Trihydrate],1.047 ± 0.0036
12,CC1(C)S[C@@H]2[C@H](NC(=O)[C@H](N)c3ccccc3)C(=O)N2[C@H]1C(=O)O [Ampicillin sodium],1.11 ± 0.012
13,Cc1ccccc1C(C(=O)NC1CCCCC1)N(C(=O)Cn1ccnc1C)c1cccc(F)c1 (stereo not drawn),0.989 ± 0.22
14,O=C(O)c1cc(=O)[nH]c(=O)[nH]1 [Orotic acid (6-Carboxyuracil)],1.14 ± 0.077
15,C[C@]12CCC(=O)C=C1[C@@H]1C[C@@H]1[C@H]1[C@@H]3[C@@H]4C[C@@H]4[C@@]4(CCC(=O)O4)[C@@]3(C)CC[C@@H]12 [Drospirenone],1.05 ± 0.092
16,COc1ccc2cc([C@H](C)C(=O)O)ccc2c1 [Naproxen],1.16 ± 0.057
17,Cc1ncc([N+](=O)[O-])n1CC(C)O (stereo not drawn) [Secnidazole],0.782 ± 0.072
18,OCCn1cc(-c2cnc3nnn(Cc4ccc5ncccc5c4)c3n2)cn1,1.18 ± 0.019
19,CC/C(=C(\c1ccc(O)cc1)c1ccc(OCCNC)cc1)c1ccccc1 [Endoxifen HCl],1.133 ± 0.011
20,Cc1ccc(S(=O)(=O)Cc2nc(-c3ccc(C(=O)NCc4cccnc4)cc3)oc2C)cc1,1.1 ± 0.036
21,COc1cccc2c1C(=O)c1c(O)c3c(c(O)c1C2=O)C[C@@](O)(C(C)=O)C[C@@H]3O[C@H]1C[C@H](N)[C@H](O)[C@H](C)O1 [Daunorubicin HCl],0.328 ± 0.021
22,CNC(=O)c1cc(Oc2ccc(NC(=O)Nc3ccc(Cl)c(C(F)(F)F)c3)cc2)ccn1 [Sorafenib Tosylate],1.14 ± 0.077
23,CNC(=O)c1cc(Oc2ccc(NC(=O)Nc3ccc(Cl)c(C(F)(F)F)c3)cc2)ccn1 [Sorafenib],1.08 ± 0.016
